Hit rate of the full screen: of about 48,000 compounds, about 450 (0.94%) were called active. Roughly 19% stayed inconclusive and do not appear here. Calls follow the shape of the dose curve; as a rule, active = well fitted inhibition curve with a large enough effect; inconclusive = small, poorly fitted or top-dose-only effect; inactive = no such curve, though single readings can be large or run the other way. This is one part of the list.
Assay: Primary qHTS for Identification of Small Molecule Inhibitors of Huntingtin Promoter Activity; also: nearly all actives have a fitted effect of over 50% in size
Details: HEK293 HTT promoter firefly luciferase reporter (activity 0% = vehicle and -100% = no light), 24 h; series mostly up to 57.5 µM; activity change, negative = inhibition: at the top concentration
Method in brief: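 HEK293 Fluc reporter, 2,500 cells/well, 24 h pre-culture; cpds up to 57.5 uM final, 24 h 37 degrees C; Dual-Glo, 10 min RT; normalized vehicle = 0%, zero RLU = -100%.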

Activity change, negative = inhibition, inactive:
Cc1ccc2oc(-c3cccc(NC(=O)c4cccc5c(Cl)cccc45)c3)nc2c1 -0.726%
COCCNC(=O)Cn1nc(-c2ccc(C)cc2)c2ccccc2c1=O -16.6% [at 11.5 µM]
COc1cccc(Cn2nnc3c(=O)[nH]c(C4CCCN(C(=O)c5ccccc5Cl)C4)nc32)c1 (configuration not stated) -21.2%
CCc1ccccc1NC(=O)COCc1cc(-c2ccco2)on1 11%
O=C(NCCc1ccccc1)c1ccc2nc(CCc3ccccc3)oc2c1 22.7%
CCOc1ccc2c(c1)c(=O)c(C(=O)c1ccc(CC)cc1)cn2CC(=O)Nc1cccc(Cl)c1 -16%
Cc1cc(C)c(Cn2c(=O)n(CCC(=O)NCc3ccc4c(c3)OCO4)c(=O)c3ccccc32)c(C)c1 -2.53%
CCOc1ccc(OCC)c(NC(=O)C2CCN(S(=O)(=O)c3ccc4c(c3)CC(C)N4C(C)=O)CC2)c1 (configuration not stated) -21.9%
Cc1ccc2occ(CC(=O)N(Cc3ccc(Cl)cc3)Cc3ccco3)c2c1 -5.44%
Cc1ccc(N2C(=O)[C@@H]3CSC(c4ccc(Cl)cc4)N3C2=O)cc1 (some centres not stated) -17%
O=C(c1ccco1)N(Cc1cccs1)c1ccc(F)cc1 -17.8%
Cc1cc(O)c(C(c2ccccc2)N2CCN(c3ccc(F)cc3)CC2)c(=O)n1Cc1ccco1 (configuration not stated) -1.62%
Cc1ccc(-n2c(CCC(=O)O)ccc2-c2cccs2)cc1Cl -1.85%
Cc1cccc(OCc2cc(=O)n3c4c(sc3n2)CCCC4)c1C -6.68%
CCc1ccc(C(=O)CC2(O)C(=O)N(Cc3ccc(C)cc3)c3ccccc32)cc1 (configuration not stated) -24.8%
CCc1ccccc1NC(=O)c1cc2nc(-c3ccc(Br)cc3)cc(C(F)(F)F)n2n1 -13.7%
CC(C)c1nc2ccc(C(=O)NCc3ccccc3Br)cc2o1 -8.02%
COc1cccc(CNC(=O)c2ccc(-n3c(C)cc4c3CCCC4)cc2)c1 -2.25%
Cc1noc(-c2ccccc2OCC(=O)Nc2ccccc2[N+](=O)[O-])n1 -5.01%
COc1ccc(CNC(=O)c2sc3nc[nH]c(=O)c3c2C)cc1 1.81%
COc1ccc2cc(CNc3ccc(C)cc3)c(=O)n(CC(=O)Nc3ccc(C)cc3Cl)c2c1 -25.9%
CCN1CCSc2ccc(C(=O)NCc3cccc(Br)c3)cc21 -26.2%
CCOc1ccc(NC(=O)CSc2c3c(nc4ccccc24)CCCC3)cc1 -7.81%
CCCCOc1ccccc1C(=O)N(Cc1sccc1C)C1CCS(=O)(=O)C1 (configuration not stated) -17.9%
CN(C)CCCn1c(-c2ccc(Cl)cc2)csc1=Nc1ccccc1 -27.7%
Cc1ccc2nc(CN3CCN(S(=O)(=O)c4ccc(C(C)C)cc4)CC3)oc2c1 -14.5%
COC(=O)c1ccc(NC(=O)CCn2cnnn2)c(C)c1 -1.68%
COc1ccc(OC)c(NC(=O)c2cc3cccc(OC)c3oc2=O)c1 -1.15%
CCCNC(=O)c1ccc(Cn2c(SCC(N)=O)nc3ccccc3c2=O)cc1 -7.8%
Cc1ccc(-c2nc3cccc(C)n3c2Nc2ccc3c(c2)OCO3)o1 14.2%
COc1cccc(CNC(=O)Cn2ncn3c(cc4ccccc43)c2=O)c1 6.74%
Cc1nn(-c2ccccc2)c(OC(=O)c2ccc(Cl)cc2)c1S(=O)(=O)c1ccccc1 -10.7%
COc1ccc(CNS(=O)(=O)c2cc3c(cc2Cl)NC(=O)CO3)cc1 -20.5%
CCC(=O)Oc1c(Sc2ccc(C)cc2)c(C)nn1-c1ccccc1 -12.7%
O=C(c1cc(-c2ccc(Br)cc2)n[nH]1)N1CCN(S(=O)(=O)c2ccc(Cl)s2)CC1 5.74%
O=C(CSc1nc(=O)n(CCN2CCOCC2)c2c1CCC2)Nc1ccc(F)cc1F -12.3%
COCCCn1c(SCC(=O)Nc2ccc(OC)cc2)nc2c(sc3ccccc32)c1=O -16.7%
Cn1c(=O)c2c(nc(N3CCOCC3)n2Cc2ccccc2F)n(C)c1=O -5.58%
O=C(Nc1ccccc1C(F)(F)F)C1CCN(S(=O)(=O)c2ccccc2)CC1 -21.8%
O=C(CSc1nc2ncccc2o1)Nc1ccc(Cl)cc1F 38.5%
COc1cc(C2c3c(-c4cc(C)ccc4O)n[nH]c3C(=O)N2Cc2ccco2)cc(OC)c1OC (configuration not stated) -6.71%
COC(=O)CSc1nc2sc3c(c2c(=O)n1-c1ccccc1)C(C)CCC3 (configuration not stated) -14.5%
CC(C)Oc1ccc(C(=O)Nc2nnc3n2CCS3)cc1 72.7%
O=C(Cn1cc(SCc2ccc(Cl)cc2)c2ccccc21)N1CCOCC1 2.9%
CCCc1nn2c(=O)cc(COC(=O)c3cccc(NC(=O)c4ccc(OCC)cc4)c3)nc2s1 -27.8%
COc1ccc(NC(=O)c2cc(S(=O)(=O)N3CCCC(C)C3)cn2C)c(OC)c1 (configuration not stated) -10.4%
COc1ccc(NC(=O)CSc2nc3ccccc3n2CC(=O)N(C)C2CCCCC2)cc1 -13.9%
Cc1cc(Cl)ccc1NS(=O)(=O)c1c(C(=O)N2CCCCCC2)c(C)n(C)c1C -10.4%
COC(=O)c1ccccc1NC(=O)c1ccc2c(c1)CCN2S(=O)(=O)c1ccc(Cl)cc1 -2.17%
Cc1ccc(C)c(Cn2c3ccccc3c3cnn(CC(=O)NC4CCCCCC4)c(=O)c32)c1 21.7%
Cc1c(Cl)cccc1NC(=O)CSc1nc(=O)[nH]c2c1CCC2 -26.1%
O=S(=O)(c1cccc(Cl)c1)n1c(/C=C/c2ccccc2Cl)nc2ccccc21 -45.7%
O=c1n(Cc2ccccc2)nc2n1-c1cc(Cl)ccc1OC2 -1.92%
Cc1c2cnn(-c3ccccc3)c(=O)c2c(C)n1CCCC(=O)Nc1cccc(F)c1 -2.05%
COc1ccc(-c2cc(OC(=O)c3cccc(Cl)c3)c3c(C)oc(C)c3c(=O)c2)cc1OC -29.9%
COC1=CC(=O)C[C@@H](C)[C@]12Oc1c(Cl)c(OC)cc(OC)c1C2=O -18.8%
CC(NS(=O)(=O)c1ccc2c(c1)CCN2C(=O)CCCC(=O)O)c1ccccc1 (configuration not stated) 4.61%
N#Cc1nc(/C=C/c2ccc(F)cc2)oc1N1CCCCCC1 -10.2%
COc1cc(OC)cc(C(=O)N2CCN(C(=O)COc3ccc(C)cc3)CC2)c1 5.51%
COc1cccc(-n2c(SCC(=O)Nc3ccc4c(c3)OCO4)nc3c([nH]c4ccccc43)c2=O)c1 -9.16%
CCc1c(C)sc(NC(=O)c2cc3nc(-c4ccc(OC)cc4)cc(C(F)(F)F)n3n2)c1C(=O)OC -0.395%
CCN(CC)c1ccc(NC(=O)Cn2nc3c(cc2=O)CCCC3)c(C)c1 0.0719%
CCC(=O)NCC[C@@H]1CCc2ccc3c(c21)CCO3 -5.08%
Cc1ccccc1NC(=O)CSc1nc(-c2cccs2)nc2cc(=O)[nH]n12 -1.73%
COc1ccc(-n2nc(C(=O)Nc3cc(C)c(Cl)cc3OC)c3c4ccccc4n(C)c3c2=O)cc1 -16.9%
CCCCN(CCCC)CCCNC(=O)c1cc(-c2ccc(Cl)s2)nc2ccccc12 -18.2%
CC(C)c1ccc(C2CC(=O)N3CN(C4CCCCC4)CSC3=C2C#N)cc1 (configuration not stated) -25.6%
Cn1ccc2cc(S(=O)(=O)N3CCCC(C(=O)NCc4ccccc4F)C3)ccc21 (configuration not stated) -23.8%
Cc1ccccc1-c1nc(CNC(=O)NC2CCCCC2)c(C)o1 0%
CC1=C(C(=O)Nc2ccccc2)C(c2ccc(Br)cc2)n2nc(CCCO)nc2N1 (configuration not stated) -12.5%
COc1ccc(-n2ncc3c2ncn2nc(-c4ccc(OC)c(OC)c4)nc32)cc1 -19%
COc1ccccc1N1CCN(C(=O)c2nn(C)c3c2CS(=O)(=O)c2ccccc2-3)CC1 -7.07%
COc1cccc(CNC(=O)CN2C(=O)COc3ccc(S(=O)(=O)N4CCCCC4)cc32)c1 -20.6%
CCn1cc2nc(SCc3cc(C)ccc3C)n(Cc3ccc(Cl)cc3)c(=O)c2n1 2.28%
CCN(CC)c1ccc(CN(C(=O)c2cc(=O)c3ccccc3o2)C2CCS(=O)(=O)C2)cc1 (configuration not stated) -25%
Cn1cc(S(=O)(=O)N2CCCC2)cc1C(=O)Nc1ccc(F)cc1F -9.71%
CCOC(=O)c1ccc(NC(=O)Cc2noc3ccc(C)cc23)cc1 -1.02%
CC1=C(C(=O)Nc2ccccc2Br)C2(CCC(C)CC2)OC1=O (configuration not stated) -18%
CCCCC12CN3CC(C)(CN(C1)C3c1ccc(OCc3ccccc3)cc1)C2=O (configuration not stated) -16.8%
Cc1ccc(-c2nc3sc(CCNC(=O)c4ccc(F)c(F)c4)c(C)n3n2)cc1 -22.4%
O=C(C1CCN(S(=O)(=O)c2cccs2)CC1)N1CCN(c2ccccc2F)CC1 -11.5%
Cc1ccc(CNC(=O)CCCCCn2c(=O)c3sccc3n(CC(=O)N3CCCCC3C)c2=O)cc1 (configuration not stated) -5.29%
O=C(CCCCCn1c(=O)[nH]c2ccccc2c1=O)N1CCN(c2cccc(C(F)(F)F)c2)CC1 -7.38%
COc1ccc(C)cc1NC(=O)CN(C)S(=O)(=O)c1ccc2c(c1)c(=O)n(C)c(=O)n2C -3.57%
Cc1ccccc1NC(=O)c1c(C)oc2ccc(O)c(CN3CCCCCC3)c12 -28.4%
CCC(CC)C(=O)Nc1ccc(S(=O)(=O)N2CCC(c3nc4ccccc4s3)CC2)cc1 -13.8%
Cc1ccccc1NC(=O)c1sc2nc(-c3cc4ccccc4oc3=O)[nH]c(=O)c2c1C -1.57%
CNC(=O)c1c(I)c(NC(C)=O)c(I)c(C(=O)O)c1I -0.247%
CCN(C(=O)Cn1c(C(=O)OC)cc2sccc21)c1cccc(C)c1 -22.7%
CCCn1cc(S(=O)(=O)c2ccc(C)c(C)c2)c(=O)c2cc(F)c(N3CCCCC3)cc21 -4.68%
CC(C)NC(=O)c1ccc(CSc2nc3ccncc3n2Cc2cccc(F)c2)cc1 -9.5%
O=C(NC1CCCCC1)c1ccc(CSc2nc3cccnc3n2Cc2ccccc2)cc1 -28.9%
CC1=C(c2ccc(C(C)C)cc2)S(=O)(=O)N=C1N1CCC(C(=O)NCc2ccc(C)o2)CC1 -20.8%
Cc1ccccc1-c1noc(-c2ccc(NCc3cccnc3)c([N+](=O)[O-])c2)n1 -28.6%
Cc1c(CC(=O)NCCc2ccccc2)c(=O)oc2c(C)c3occ(C(C)(C)C)c3cc12 -6.13%
CC(=O)c1cccc(NC(=O)Cn2ccn3nc(-c4ccccc4)cc3c2=O)c1 -15.7%
CCOC(=O)c1c(N)n(-c2ccc(OCC)cc2)c2nc3ccccc3nc12 -1.76%

— PubChem BioAssay AID1508623 (National Center for Advancing Translational Sciences (NCATS), 2021)
